# Source: the supplement of paper PMC6609913
# Structures can show the parent of a compound that is named as a salt. ± gives the standard deviation of the averaged measurements. In all, about 1,300 compounds were measured (“normalised cell viability”: median about 1, lowest 2% from about 0.15 on). Some of the results follow.
# Tested on: V-C8 + BRCA2 (BRCA2-proficient hamster cells)
# Test: normalised cell viability (fraction of plate median); higher = more viable cells (less toxic)
# Conditions: 5 µM
# Outline: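 Cell viability was measured with a resazurin assay, normalised to the plate median (modified robust per cent of sample) and averaged over triplicate wells. Hamster V-C8 cells lacking BRCA2 and V-C8 cells with BRCA2 restored were seeded in 96-well plates. After 24 h, library drugs from 10 mM DMSO stocks were added at a final 5 μM in 100 μl medium and left for 3 days (screen 1) or 6 days (screen 2), with solvent-only wells alongside.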
SMILES,normalised cell viability (treatment time: 3 days),normalised cell viability (treatment time: 6 days)
CNCCCC12CCC(c3ccccc31)c1ccccc12 [Maprotiline hydrochloride],1.01 ± 0.053,0.812 ± 0.032
C[C@@H]1C[C@H]2[C@@H]3C[C@H](F)C4=CC(=O)C=C[C@]4(C)[C@@]3(Cl)[C@@H](O)C[C@]2(C)[C@H]1C(=O)COC(=O)C(C)(C)C [Clocortolone pivalate],1.03 ± 0.27,0.899 ± 0.07
CCCCCNC(=N)N/N=C/c1c[nH]c2ccc(OC)cc12 [Tegaserod maleate],0.1362 ± 0.0013,0.155 ± 0.022
NS(=O)(=O)c1cc(Cl)c(Cl)c(S(N)(=O)=O)c1 [Dichlorphenamide],1.09 ± 0.05,0.961 ± 0.035
CCN1CCCC(OC(=O)C(c2ccccc2)c2ccccc2)C1 (centres undefined) [Piperidolate hydrochloride],1.09 ± 0.039,1.07 ± 0.06
CN(C)CCCSC(=N)N [Dimaprit dihydrochloride],0.995 ± 0.046,0.955 ± 0.019
Cc1onc(-c2c(F)cccc2Cl)c1C(=O)N[C@@H]1C(=O)N2[C@@H]1SC(C)(C)[C@@H]2C(=O)O [Flucloxacillin sodium],1.02 ± 0.065,0.984 ± 0.016
C[C@H](Cc1cc2c(c(C(N)=O)c1)N(CCCO)CC2)NCCOc1ccccc1OCC(F)(F)F [Silodosin],0.981 ± 0.025,1.02 ± 0.055
O=C(NCCN1CCOCC1)c1ccc(Cl)cc1 [Moclobemide],1.08 ± 0.021,0.989 ± 0.045
CN1C(=O)OC(C)(C)C1=O [Trimethadione],1.12 ± 0.055,1.02 ± 0.077
CC(=O)CCCCn1c(=O)c2c(ncn2C)n(C)c1=O [Pentoxifylline],1.084 ± 0.0065,1.05 ± 0.065
CN(C/C=C/c1ccccc1)Cc1cccc2ccccc12 [Naftifine hydrochloride],0.211 ± 0.0033,0.243 ± 0.015
OCCN1CCN(CCCN2c3ccccc3C=Cc3ccccc32)CC1 [Opipramol dihydrochloride],1.043 ± 0.0039,0.999 ± 0.018
CC(C)NC[C@H](O)COc1cccc2ccccc12 [(S)-propranolol hydrochloride],0.997 ± 0.02,1.05 ± 0.075
CNC(=O)c1c(I)c(C(=O)NCC(=O)Nc2c(I)c(C(=O)O)c(I)c(C(=O)NCCO)c2I)c(I)c(N(C)C(C)=O)c1I [Ioxaglic acid],1 ± 0.058,1.11 ± 0.086
CCCCNc1cc(C(=O)O)cc(S(N)(=O)=O)c1Oc1ccccc1 [Bumetanide],1.03 ± 0.026,1.06 ± 0.12
CC(=O)Oc1ccccc1C(=O)Oc1ccccc1C(=O)O [Acetylsalicylsalicylic acid],1.07 ± 0.061,1.04 ± 0.066
CC(C)n1c(/C=C/C(O)CC(O)CC(=O)O)c(-c2ccc(F)cc2)c2ccccc21 (centres undefined) [Fluvastatin sodium salt],0.134 ± 0.0077,0.155 ± 0.013
Cc1ccnc(NS(=O)(=O)c2ccc(N)cc2)n1 [Sulfamerazine],1.02 ± 0.062,0.859 ± 0.059
C[C@H]1NC(=O)NC1=O [Methylhydantoin-5-(D)],1.02 ± 0.26,1.067 ± 0.0084
NC(=O)OCC(COC(N)=O)c1ccccc1 [Felbamate],1.04 ± 0.037,1.08 ± 0.054
N=C(N)NCc1cccc(I)c1 [Iobenguane sulfate],1.1 ± 0.017,1.15 ± 0.28
NCCCC(O)(P(=O)(O)O)P(=O)(O)O [Alendronate sodium],0.685 ± 0.073,0.565 ± 0.024

SMILES,normalised cell viability (treatment time: 3 days),normalised cell viability (treatment time: 6 days)
CNC[C@H](O)[C@@H](O)[C@H](O)[C@H](O)CO [Meglumine],0.938 ± 0.094,0.983 ± 0.037
Nc1ccc(S(=O)(=O)Nc2cnc3ccccc3n2)cc1 [Sulfaquinoxaline sodium salt],1.04 ± 0.034,1.18 ± 0.14
CN(C)CCn1nnnc1SCC1=C(C(=O)O)N2C(=O)[C@@H](NC(=O)Cc3csc(N)n3)[C@H]2SC1 [Cefotiam hydrochloride],1.03 ± 0.043,0.992 ± 0.04
CC(=O)N[C@@H](CS)C(=O)O [Acetylcysteine],0.9896 ± 0.0073,1.02 ± 0.025
CC(=O)O[C@H]1C[C@@]2(C)[C@@H](C[C@@H](O)[C@H]3[C@@]4(C)CC[C@@H](O)[C@@H](C)[C@@H]4CC[C@@]32C)/C1=C(\CCC=C(C)C)C(=O)O [Fusidic acid sodium salt],0.954 ± 0.013,1.08 ± 0.072
CCN(CC)CCOC(=O)c1ccc(N)cc1 [Procaine hydrochloride],1.026 ± 0.0094,0.989 ± 0.019
CC[C@H](C)C(=O)O[C@H]1C[C@@H](C)C=C2C=C[C@H](C)[C@H](CC[C@@H]3C[C@@H](O)CC(=O)O3)[C@H]21 [Lovastatin],0.19 ± 0.015,0.153 ± 0.019
Cc1c(C)c2c(c(C)c1O)CCC(C)(C(=O)O)O2 (centres undefined) [Trolox],1.02 ± 0.027,1.07 ± 0.013
Cc1ncc(CO)c(CO)c1O [Pyridoxine hydrochloride],1.01 ± 0.019,1.06 ± 0.046
CCc1c(C)[nH]c2c1C(=O)C(CN1CCOCC1)CC2 (centres undefined) [Molindone hydrochloride],1.02 ± 0.021,1.1 ± 0.06
CCC1(c2ccccc2)NC(=O)N(C)C1=O (centres undefined) [Mephenytoin],1.22 ± 0.4,1.03 ± 0.027
CC1=C(/C=C/C(C)=C/C=C/C(C)=C/C(=O)O)C(C)(C)CCC1 [Retinoic acid],1.01 ± 0.04,0.978 ± 0.036
NC(=O)c1cc[n+](CC2=C(C(=O)[O-])N3C(=O)[C@@H](NC(=O)[C@@H](c4ccccc4)S(=O)(=O)O)[C@H]3SC2)cc1 [Cefsulodin sodium salt],0.981 ± 0.043,1.06 ± 0.048
CC(=O)Oc1ccccc1C(=O)O [Acetylsalicylic acid],1.01 ± 0.044,1.05 ± 0.044
N=C(N)NS(=O)(=O)c1ccc(N)cc1 [Sulfaguanidine],0.895 ± 0.066,0.989 ± 0.022
COc1cc2nc(N(C)CCCNC(=O)C3CCCO3)nc(N)c2cc1OC (centres undefined) [Alfuzosin hydrochloride],0.987 ± 0.013,1.11 ± 0.076
Clc1ccc(Cn2c(CN3CCCC3)nc3ccccc32)cc1 [Clemizole hydrochloride],1.29 ± 0.03,1.2 ± 0.027
O=C(O)COCCN1CCN(C(c2ccccc2)c2ccc(Cl)cc2)CC1 (centres undefined) [Cetirizine dihydrochloride],1 ± 0.028,1.01 ± 0.063
N[C@@H]1CONC1=O [D-cycloserine],1.02 ± 0.03,1.03 ± 0.054
C#C[C@]1(OC(C)=O)CC[C@H]2[C@@H]3CCC4=CC(=NO)CC[C@@H]4[C@H]3CC[C@@]21CC (mixture of isomers) [Norgestimate],1.09 ± 0.24,0.949 ± 0.013
CC(=O)O[C@]1(C(C)=O)CC[C@H]2[C@@H]3C=C(Cl)C4=CC(=O)[C@@H]5C[C@@H]5[C@]4(C)[C@H]3CC[C@@]21C [Cyproterone acetate],0.949 ± 0.087,1.02 ± 0.086
Clc1ccc(CO/N=C(\Cn2ccnc2)c2ccc(Cl)cc2Cl)c(Cl)c1 [Oxiconazole Nitrate],1.07 ± 0.16,0.675 ± 0.12
Clc1ccc(CSC(Cn2ccnc2)c2ccc(Cl)cc2Cl)cc1 (centres undefined) [Sulconazole nitrate],1.11 ± 0.06,0.942 ± 0.033

SMILES,normalised cell viability (treatment time: 3 days),normalised cell viability (treatment time: 6 days)
CN1C(=O)CC(c2ccccc2)C1=O (centres undefined) [Phensuximide],1.06 ± 0.018,1.08 ± 0.084
Nc1ccn([C@@H]2O[C@H](CO)[C@@H](O)C2(F)F)c(=O)n1 [Gemcitabine],0.212 ± 0.014,0.183 ± 0.0099
CC1CNc2c(cccc2S(=O)(=O)N[C@@H](CCCNC(=N)N)C(=O)N2CC[C@@H](C)C[C@@H]2C(=O)O)C1 (some centres undefined) [Argatroban],1.203 ± 0.0019,1.12 ± 0.14
CN(C)CCN(Cc1ccccc1)c1ccccn1 [Tripelennamine hydrochloride],1.01 ± 0.022,1.03 ± 0.09
CC(=O)O[C@@]12CO[C@@H]1C[C@H](O)[C@@]1(C)C(=O)[C@H](O)C3=C(C)[C@@H](OC(=O)[C@H](O)[C@@H](NC(=O)OC(C)(C)C)c4ccccc4)C[C@@](O)([C@@H](OC(=O)c4ccccc4)[C@H]21)C3(C)C [Docetaxel],0.258 ± 0.014,0.237 ± 0.023
N=C(N)NC(=O)Cc1c(Cl)cccc1Cl [Guanfacine hydrochloride],1.08 ± 0.043,1.049 ± 0.0056
NC(Cc1cc(I)c(Oc2cc(I)c(O)c(I)c2)c(I)c1)C(=O)O (centres undefined) [Thyroxine (L)],0.821 ± 0.05,0.888 ± 0.1
CN(C)CC/C=C1/c2ccccc2Sc2ccc(Cl)cc21 [Chlorprothixene hydrochloride],1.01 ± 0.056,0.908 ± 0.021
COc1ccc2[nH]c([S+]([O-])Cc3ncc(C)c(OC)c3C)nc2n1 (centres undefined) [Tenatoprazole],0.985 ± 0.047,1.028 ± 0.0098
CN(C)CCOC(c1ccccc1)c1ccccc1 [Diphenhydramine hydrochloride],1.09 ± 0.049,1.04 ± 0.055
C[C@]12CC[C@@H]3c4ccc(O)cc4CC[C@H]3[C@@H]1CC[C@@H]2O [Estradiol-17 beta],0.99 ± 0.026,1.1 ± 0.016
CCCN(CCC)S(=O)(=O)c1ccc(C(=O)O)cc1 [Probenecid],1 ± 0.026,1.16 ± 0.043
Cc1onc(-c2ccccc2)c1-c1ccc(S(N)(=O)=O)cc1 [Valdecoxib],1.06 ± 0.018,1.02 ± 0.056
CCCc1cc(=O)[nH]c(=S)[nH]1 [Propylthiouracil],1.025 ± 0.0057,1.01 ± 0.095
C[N+]1(CCCCC[N+]2(C)CCCC2)CCCC1 [Pentolinium bitartrate],1 ± 0.037,1.06 ± 0.04
Oc1ncnc2[nH]ncc12 [Allopurinol],1.08 ± 0.05,1.07 ± 0.04
CCCCCCC[N+](CC)(CC)CCCCc1ccc(Cl)cc1 [Clofilium tosylate],0.897 ± 0.063,0.935 ± 0.094
CNCCCC1c2ccccc2C=Cc2ccccc21 [Protriptyline hydrochloride],0.942 ± 0.063,0.966 ± 0.089
C[C@]12CCC(=O)C=C1CC[C@@H]1[C@@H]2[C@@H](O)C[C@@]2(C)[C@H]1CC[C@]2(O)C(=O)CO [Hydrocortisone base],1.06 ± 0.031,1.07 ± 0.17
CN[C@@H]1[C@H](O[C@H]2[C@H](O[C@H]3[C@H](O)[C@@H](O)[C@H](N=C(N)N)[C@@H](O)[C@@H]3N=C(N)N)O[C@@H](C)[C@]2(O)C=O)O[C@@H](CO)[C@H](O)[C@H]1O [Streptomycin sulfate],1.02 ± 0.021,1.15 ± 0.08
Nc1nc(Cl)nc2c1ncn2[C@H]1C[C@H](O)[C@@H](CO)O1 [Cladribine],0.162 ± 0.0053,0.165 ± 0.011
